{"source": "paper PMC9911399", "about": "“Two distinct binding modes provide the RNA-binding protein RbFox with extraordinary sequence specificity”", "binders": {"B1": {"name": "UGCUCAC (DNA:RNA)", "RNA": "GGGAGACCGGAAUUCAGAUUGUCCUGCUCACUUAAAUCCCGUCGUAGCCACCA", "DNA 1": "CAATCTGAATTCCGGTCTCCC", "DNA 2": "TGGTGGCTACGACGGGATT"}, "B2": {"name": "CACGCAC (DNA:RNA)", "RNA": "B1 RNA with U25C, G26A, U28G", "DNA 1": "CAATCTGAATTCCGGTCTCCC", "DNA 2": "TGGTGGCTACGACGGGATT"}, "B3": {"name": "CUGUCGC (DNA:RNA)", "RNA": "B1 RNA with U25C, G26U, C27G, A30G", "DNA 1": "CAATCTGAATTCCGGTCTCCC", "DNA 2": "TGGTGGCTACGACGGGATT"}, "B4": {"name": "GAUUGGU (DNA:RNA)", "RNA": "B1 RNA with U25G, G26A, C27U, C29G, A30G, C31U", "DNA 1": "CAATCTGAATTCCGGTCTCCC", "DNA 2": "TGGTGGCTACGACGGGATT"}, "B5": {"name": "ACUUUGU (DNA:RNA)", "RNA": "B1 RNA with U25A, G26C, C27U, C29U, A30G, C31U", "DNA 1": "CAATCTGAATTCCGGTCTCCC", "DNA 2": "TGGTGGCTACGACGGGATT"}, "B6": {"name": "GUAUAUG (DNA:RNA)", "RNA": "B1 RNA with U25G, G26U, C27A, C29A, A30U, C31G", "DNA 1": "CAATCTGAATTCCGGTCTCCC", "DNA 2": "TGGTGGCTACGACGGGATT"}, "B7": {"name": "CAAAUAC (DNA:RNA)", "RNA": "B1 RNA with U25C, G26A, C27A, U28A, C29U", "DNA 1": "CAATCTGAATTCCGGTCTCCC", "DNA 2": "TGGTGGCTACGACGGGATT"}, "B8": {"name": "UGGCUAC (DNA:RNA)", "RNA": "B1 RNA with C27G, U28C, C29U", "DNA 1": "CAATCTGAATTCCGGTCTCCC", "DNA 2": "TGGTGGCTACGACGGGATT"}, "B9": {"name": "GCGUAUC (DNA:RNA)", "RNA": "B1 RNA with U25G, G26C, C27G, C29A, A30U", "DNA 1": "CAATCTGAATTCCGGTCTCCC", "DNA 2": "TGGTGGCTACGACGGGATT"}, "B10": {"name": "UUGACUC (DNA:RNA)", "RNA": "B1 RNA with G26U, C27G, U28A, A30U", "DNA 1": "CAATCTGAATTCCGGTCTCCC", "DNA 2": "TGGTGGCTACGACGGGATT"}, "B11": {"name": "AGGAGUA (DNA:RNA)", "RNA": "B1 RNA with U25A, C27G, U28A, C29G, A30U, C31A", "DNA 1": "CAATCTGAATTCCGGTCTCCC", "DNA 2": "TGGTGGCTACGACGGGATT"}, "B12": {"name": "GGGCACU (DNA:RNA)", "RNA": "B1 RNA with U25G, C27G, U28C, C29A, A30C, C31U", "DNA 1": "CAATCTGAATTCCGGTCTCCC", "DNA 2": "TGGTGGCTACGACGGGATT"}, "B13": {"name": "CGUACAU (DNA:RNA)", "RNA": "B1 RNA with U25C, C27U, U28A, C31U", "DNA 1": "CAATCTGAATTCCGGTCTCCC", "DNA 2": "TGGTGGCTACGACGGGATT"}, "B14": {"name": "CUACCCC (DNA:RNA)", "RNA": "B1 RNA with U25C, G26U, C27A, U28C, A30C", "DNA 1": "CAATCTGAATTCCGGTCTCCC", "DNA 2": "TGGTGGCTACGACGGGATT"}, "B15": {"name": "ACCUGCA (DNA:RNA)", "RNA": "B1 RNA with U25A, G26C, C29G, A30C, C31A", "DNA 1": "CAATCTGAATTCCGGTCTCCC", "DNA 2": "TGGTGGCTACGACGGGATT"}, "B16": {"name": "CCACUAG (DNA:RNA)", "RNA": "B1 RNA with U25C, G26C, C27A, U28C, C29U, C31G", "DNA 1": "CAATCTGAATTCCGGTCTCCC", "DNA 2": "TGGTGGCTACGACGGGATT"}, "B17": {"name": "AAGCUUU (DNA:RNA)", "RNA": "GGGAGACCGGAAUUCAGAUUGUCCAAGCUUUUUAAAUCCCGUCGUAGCCACCA", "DNA 1": "CAATCTGAATTCCGGTCTCCC", "DNA 2": "TGGTGGCTACGACGGGATT"}, "B18": {"name": "UCCGUUU (DNA:RNA)", "RNA": "B17 RNA with A25U, A26C, G27C, C28G", "DNA 1": "CAATCTGAATTCCGGTCTCCC", "DNA 2": "TGGTGGCTACGACGGGATT"}, "B19": {"name": "GACGUCG (DNA:RNA)", "RNA": "B17 RNA with A25G, G27C, C28G, U30C, U31G", "DNA 1": "CAATCTGAATTCCGGTCTCCC", "DNA 2": "TGGTGGCTACGACGGGATT"}, "B20": {"name": "AGAAAUC (DNA:RNA)", "RNA": "B17 RNA with A26G, G27A, C28A, U29A, U31C", "DNA 1": "CAATCTGAATTCCGGTCTCCC", "DNA 2": "TGGTGGCTACGACGGGATT"}}, "note": "Changes are numbered by the printed parent chain; changes in the protein carry UniProt numbers. This is one part of the list."}
{"molecular_target": "T1, RBFOX1 RRM (Homo sapiens, UniProt Q9NWB1 109-208)", "T1 sequence": "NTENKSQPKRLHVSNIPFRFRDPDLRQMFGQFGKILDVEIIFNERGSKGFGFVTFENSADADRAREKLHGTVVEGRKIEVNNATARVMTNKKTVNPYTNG", "test": "EMSA; HiTS-Eq, 1 nM pool, 10 min; buffer printed only for the single-RNA assays: 10 mM Tris pH 7.5, 150 mM NaCl, 3.4 mM EDTA, 0.001% NP-40, 30 C", "conditions": "tags: His6 N-terminal (pET28a); label: 5' 32P", "summary_of_the_method": "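Purified wild-type or mutant RbFox RRM at increasing concentrations was equilibrated with 1 nM of 5′-radiolabelled RNA carrying 7 randomized nucleotides for 10 min in 50 µL. Unbound RNA was separated by 8% native PAGE and sequenced. Relative association constants came from read-count changes of each RNA species compared with the control reaction, normalised to the cognate motif.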"}
{"binder": "B1", "binding signal": "0.0157 KA relative to UGCAUGU"}
{"binder": "B2", "binding signal": "0.00917 KA relative to UGCAUGU"}
{"binder": "B3", "binding signal": "0.0154 KA relative to UGCAUGU"}
{"binder": "B4", "binding signal": "0.0218 KA relative to UGCAUGU"}
{"binder": "B5", "binding signal": "0.0121 KA relative to UGCAUGU"}
{"binder": "B6", "binding signal": "0.00924 KA relative to UGCAUGU"}
{"binder": "B7", "binding signal": "0.00138 KA relative to UGCAUGU"}
{"binder": "B8", "binding signal": "0.0274 KA relative to UGCAUGU"}
{"binder": "B9", "binding signal": "0.00852 KA relative to UGCAUGU"}
{"binder": "B10", "binding signal": "0.0139 KA relative to UGCAUGU"}
{"binder": "B11", "binding signal": "0.00992 KA relative to UGCAUGU"}
{"binder": "B12", "binding signal": "0.0241 KA relative to UGCAUGU"}
{"binder": "B13", "binding signal": "0.0031 KA relative to UGCAUGU"}
{"binder": "B14", "binding signal": "0.00233 KA relative to UGCAUGU"}
{"binder": "B15", "binding signal": "0.0144 KA relative to UGCAUGU"}
{"binder": "B16", "binding signal": "0.00444 KA relative to UGCAUGU"}
{"binder": "B17", "binding signal": "0.00565 KA relative to UGCAUGU"}
{"binder": "B18", "binding signal": "0.00747 KA relative to UGCAUGU"}
{"binder": "B19", "binding signal": "0.0208 KA relative to UGCAUGU"}
{"binder": "B20", "binding signal": "0.0038 KA relative to UGCAUGU"}
